Source: publication PMC6919601, “Identification of Plasmodium dipeptidyl aminopeptidase allosteric inhibitors by high throughput screening” (PLoS ONE, 2019)
Hit rate of the full screen: of about 110,000 compounds, about 230 (0.21%) showed an effect of 50% or more. This is one part of the list.

Target: DPAP1 (Plasmodium falciparum, UniProt Q8IIJ9)
Assay: primary screen, percent inhibition; read by cleavage of a fluorogenic dipeptide substrate; higher = more effect of the substance
Set-up: species or system P. falciparum D10 trophozoite lysates; single well
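Note: 30 min substrate incubation versus DMSO and 10 µM JCP410 controls.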

Chain of DPAP1 (Q8IIJ9 whole entry, looked up): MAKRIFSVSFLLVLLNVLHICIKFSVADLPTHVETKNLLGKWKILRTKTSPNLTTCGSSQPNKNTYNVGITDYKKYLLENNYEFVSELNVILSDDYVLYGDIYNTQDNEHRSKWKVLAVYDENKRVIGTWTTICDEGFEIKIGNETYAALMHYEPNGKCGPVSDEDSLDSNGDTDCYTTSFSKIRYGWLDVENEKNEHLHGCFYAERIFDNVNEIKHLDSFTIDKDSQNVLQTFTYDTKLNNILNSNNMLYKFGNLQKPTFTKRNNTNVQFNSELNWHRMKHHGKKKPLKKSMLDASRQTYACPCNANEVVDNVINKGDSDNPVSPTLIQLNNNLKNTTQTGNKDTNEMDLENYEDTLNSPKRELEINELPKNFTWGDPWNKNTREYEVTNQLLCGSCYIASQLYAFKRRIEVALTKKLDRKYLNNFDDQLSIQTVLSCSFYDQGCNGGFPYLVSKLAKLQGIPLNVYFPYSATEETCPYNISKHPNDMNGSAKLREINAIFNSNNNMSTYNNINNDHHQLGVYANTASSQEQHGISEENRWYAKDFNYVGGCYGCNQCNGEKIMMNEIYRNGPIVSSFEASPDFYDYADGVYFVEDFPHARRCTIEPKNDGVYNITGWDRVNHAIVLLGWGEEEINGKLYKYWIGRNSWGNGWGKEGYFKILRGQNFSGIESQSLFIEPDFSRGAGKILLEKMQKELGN

SMILES	% Inhibition @ 10 uM
COCC(C)NC(=O)Cn1cnc2c1c(=O)n(C)c(=O)n2C (stereo not shown)	6.68%
O=C(NCc1ccccn1)c1ccc(CS(=O)c2ccccc2Cl)o1 (stereo not shown)	-2.15%
CCOC(=O)c1c(NC(=O)c2cc(OC)c(OC)c(OC)c2)sc(C(=O)N2CCCC2)c1C	-1.46%
CC(=O)NC1=C(N2CCOCC2)C(=O)c2nonc2C1=O	3.9%
Clc1ccc(CN2CCN(c3ccccc3Cl)CC2)c(Cl)c1	-1.92%
Cc1cc(NC(=O)c2cnn3c(C(F)(F)F)cc(-c4ccc(Br)cc4)nc23)no1	25.5%
CN1C(=O)C2Cc3c([nH]c4ccccc34)C(c3ccc(F)cc3)N2C1=S (stereo not shown)	0.00784%
CCCN1CCC(N(CCO)Cc2ccccc2)CC1	1.57%
COc1ccc(N2CCN(Cc3ccccc3Br)CC2)cc1	-2.56%
Cc1ccc2nc3c(O)n(CC(=O)N4CCN(C)CC4)ncc-3c2c1	-1.79%
COc1ccc(CO/C(O)=C2/C(C)=NC3=C(C(=O)CC(C)(C)C3)C2c2ccncc2)cc1 (stereo not shown)	1.67%
O=C(CNc1nnc(O)nc1O)OCc1ccccc1	-2.62%
COc1ccc(/C(C)=N/OCC(=O)Nc2nc3ccccc3s2)cc1OC	-1.86%
N#CC1=C(N)OC2=C(C(=O)CC(c3ccccc3)C2)C1c1c[nH]c2ccccc12 (stereo not shown)	9.41%
CN(CCCNC(=O)Cn1ccc2cc(S(=O)(=O)N3CCCCC3)ccc21)Cc1ccccc1	2.94%
COc1ccccc1/C=C1\N=C(c2ccc(Cl)c(Cl)c2)OC1=O	-4.46%
CC1CC(C)CN(C(=O)CSc2nnc(-c3ccc(Cl)s3)o2)C1 (stereo not shown)	-2.8%
Cc1ccc(CNC(=O)Cn2ncc3c2-c2ccccc2OC3)o1	9.96%
O=C1c2ccccc2C(=O)c2c(O)c([N+](=O)[O-])cc(O)c21	11.3%
Nc1c(C(=O)NC2CC2)sc2nc(-c3ccc(F)cc3)cc(C(F)(F)F)c12	3.5%
CCCN(CCC)C(=O)CS(=O)(=O)Cc1nc(-c2ccc(C)cc2)oc1C	-5.58%
CC(C)c1ccc(C2c3c(oc4ccc(F)cc4c3=O)C(=O)N2CCCN2CCOCC2)cc1 (stereo not shown)	0.628%
CC1=NN2C(=N)/C(=C/c3cn(Cc4cccc(C)c4)c4ccccc34)C(=O)N=C2S1	2.17%
O=C(Cc1ccc(-c2ccccc2)cc1)Nc1ccc2ccccc2c1	-4.87%
Cc1cc(Cl)ccc1OCC(=O)Nc1sc2c(c1C#N)CCC2	1.57%

SMILES	% Inhibition @ 10 uM
c1ccc(N2CCN(Cc3ccc4c(c3)OCO4)CC2)cc1	-1.38%
O=C(NCCC1=CCCCC1)C1C2C=CC3(CN(Cc4cccs4)C(=O)C13)O2 (stereo not shown)	15.7%
CCOc1ccc(NC(=O)Cc2ccccc2F)cc1	-1.11%
COc1ccc(-n2c3c(c(O)cc2=O)C(=O)CC(C)(C)C3)cc1	-4.76%
Cc1sc2nc(-c3ccc(C(C)C)cc3)nc(O)c2c1C	-3.09%
CCCCCO/C(O)=C1\C(C)=NC2=C(C(=O)CC(C)(C)C2)C1c1cccc(OC)c1OC (stereo not shown)	-1.03%
CCN(CC)c1ccc(NC(=O)C2CC2c2ccccc2)cc1 (stereo not shown)	1.24%
COc1ccc(OC)c(CNCc2c(C(=O)O)n(Cc3ccc(F)cc3)c3cc(OC)ccc23)c1	-1.53%
CCCc1cc(C(=O)NCCOc2ccccc2Cl)n(C)n1	-1.96%
Cc1nc2ccn(Cc3cccnc3)c(=O)c2cc1C(=O)NCCC1=CCCCC1	-6.53%
O=C(CN1N=C(c2ccccc2)CCC1=O)N1CCC2(CC1)OCCO2	0.514%
O=C(CCNS(=O)(=O)c1cccs1)Nc1nccs1	1.83%
Cc1nn(Cc2ccccc2)c(C)c1NC(=O)c1ccn(C)n1	11%
CCC(C)c1ccc(NC(=O)c2cccc(OC)c2)cc1 (stereo not shown)	-3.39%
CC1CCN(CN2C(=O)C(=O)c3ccccc32)CC1	-6.67%
CCOC(=O)C1CCN(Cc2ccc(Br)o2)CC1	3.01%
COc1ccc(CCNC(=O)C2CCCN(c3nnc(N4CCCC4=O)s3)C2)c(OC)c1 (stereo not shown)	-4.68%
COc1cc2ncc(S(=O)(=O)c3ccc(Cl)cc3)c(N3CCOCC3)c2cc1OC	25.2%
COc1ccc(C2C(C(C)=O)=C(O)C(=O)N2CO)cc1 (stereo not shown)	2.37%
COc1ccc(CN2CCN(Cc3ccccc3Br)CC2)c(OC)c1OC	0.873%
COc1cccc(OC)c1C(=O)Nc1sc2c(c1C#N)CCCC2	-2.89%
COc1ccc(C2c3c(oc4ccc(C)cc4c3=O)C(=O)N2c2nccs2)cc1OC (stereo not shown)	0.415%
Cc1cc(C(=O)O)ccc1-n1c(C)ccc1C	1.26%
CC(C)C[C@H](NC(=O)N1CCN(c2cccc(C(F)(F)F)c2)CC1)C(=O)NCC#N	-0.406%
Cc1nn(C)cc1CNC(=O)Nc1cccc(Cl)c1	2.65%

SMILES	% Inhibition @ 10 uM
O=C(CCN1C(=O)C2C3C=CC(C3)C2C1=O)Nc1nnc(C(F)(F)F)s1 (stereo not shown)	-0.551%
CCOc1ccc(CCNC(=O)CN2C(=O)CSc3nc(C)cc(C)c32)cc1	-6.01%
O=c1oc2ccccc2c(N(CCO)Cc2ccccc2)c1[N+](=O)[O-]	7.96%
COc1ccc(/C=C/c2nc(C#N)c(N3CCN(C)CC3)o2)cc1OC	5.68%
Cc1ccc(C2OC3(C(=O)c4ccccc4C3=O)C3C(=O)N(c4ccc(F)cc4)C(=O)C23)cc1 (stereo not shown)	-5.49%
Cc1cc(-c2ccccc2)c2c(n1)sc1c(O)cc(O)nc12	5.5%
CC(=O)c1c(C)cc2cc(C)cc(O)c2c1O	-4.11%
O=S(=O)(c1cccc(C(F)(F)F)c1)N1CCOCC1	4.83%
O=C1N=C(N2CCOCC2)S/C1=C/c1ccc(Cl)cc1	4.8%
NS(=O)(=O)c1ccc(NC(=S)NC(=O)c2ccc(F)cc2)cc1	-1.29%
CC1=NN(C(=O)Cc2ccccc2)C(O)(c2cccnc2)C1 (stereo not shown)	-1.28%
CC(=O)N1CCC2(CC1)OC(=O)C(C)=C2C(=O)NC1CCCC1	-6.13%
CCOc1ccccc1C(=O)Nc1ccc(F)cc1F	3.48%
Cc1cc2sc3nc(=O)c4cccnc4n3c2cc1C	-2.82%
CC(=O)Nc1ccc(C(=O)O)cc1[N+](=O)[O-]	1.45%
Cc1ccc2[nH]c(SCc3ccccc3F)nc2c1	1.64%
O=c1oc2ccc(Cl)cc2n1Cc1ccccc1F	2.38%
Cn1nc(-c2ccc(OCC(=O)Nc3cccnc3)cc2)c2ccccc2c1=O	-3.23%
O=C(Nc1cccc(N2C(=O)C3C4CCC(C4)C3C2=O)c1)c1ccccc1 (stereo not shown)	-5.23%
Cc1nn(Cc2ccc(C(=O)Nc3ccon3)o2)c(C)c1Br	-1.55%
CCCOc1ccc(C(=O)Nc2cc(C)cc(C)c2)cc1	4.57%
O=C(Nc1ccn(Cc2ccc(F)cc2)n1)C1CCCC1	5.24%
COC(=O)C1=CN(Cc2ccc(Cl)cc2)C=C(C(=O)OC)C1c1ccc(OC)c(OC)c1OC	3.43%
COc1cccc(OC)c1C(=O)Nc1cc(C)ccc1C	2.22%
CCCCOc1ccc(C(C)NC(=O)c2ccc(CNS(=O)(=O)c3ccc(OC)cc3)cc2)cc1 (stereo not shown)	-3.35%

SMILES	% Inhibition @ 10 uM
O=C(Nc1ccc(S(=O)(=O)N2CCCC2)cc1)C1CCCCC1	-4.02%
O=C(c1ccc(S(=O)(=O)c2ccc(Cl)cc2)cc1)N1CCOCC1	-4.11%
Cc1nc(N2CCN(c3ncccn3)CC2)c2c3c(sc2n1)CCC3	9.48%
COc1cc(C2C(C#N)=C(N)Oc3[nH]nc(-c4ccc(Cl)s4)c32)ccc1O (stereo not shown)	-4.91%
CCOC(=O)C1=C(C)N=c2s/c(=C\c3ccc(C)o3)c(=O)n2C1c1ccccc1 (stereo not shown)	6.09%
COc1ccc2c(CNCc3ccc(C)o3)c(C(=O)O)[nH]c2c1	-3.01%
Cc1ccc(CNC(=O)NCc2noc3ccccc23)cc1	2.49%
Cc1sc2ncnc(Oc3ccc4c(C)cc(=O)oc4c3)c2c1C	-4.98%
O=C1N=C(SCC(=O)N2CCN(C34CC5CC(CC(C5)C3)C4)CC2)NC(=O)C1Cc1ccccc1 (stereo not shown)	-19.8%
Cc1ccc(SCCC(=O)NCCC2=CCCCC2)cc1	-1.22%
N#CC1=C(N)N(c2ccc(Br)cc2F)C2=C(C(=O)CCC2)C1c1cccs1 (stereo not shown)	-1.06%
CC(C)C(=O)Nc1c(-c2cccs2)nc2ccccn12	3.48%
C(=C\c1nc(-c2ccc(-n3cccc3)cc2)no1)/c1ccccc1	1.19%
CCn1ncc(Br)c1C(=O)N(C)C12CC3CC(CC(C3)C1)C2	4%
Cc1cc(Cl)ccc1OCC(=O)NC(C)C1CC2CCC1C2 (stereo not shown)	-6.65%
CNc1ccccc1-c1nc2cc3ccccc3cc2n(C)c1=O	-1.07%
CC1CCC(NC2CCN(Cc3ccccc3)CC2)CC1 (stereo not shown)	-4.75%
COc1ccc(-c2nc3s/c(=C\C4=Cc5ccccc5OC4)c(=O)n3n2)cc1	-1.52%
CC1NC(=O)N(C)C2NC(=O)N(C)C(c3ccccc3)C12 (stereo not shown)	2.26%
COc1ccc(C(=O)NC2CCCCC2)cc1S(=O)(=O)N1CCOCC1	16.8%
CC(NC(=O)C(C)n1c2ccccc2c2cnn(C)c(=O)c21)c1ccccc1 (stereo not shown)	1.38%
N#CC1=C(SCC(N)=O)NC(=O)CC1c1ccc(Cl)cc1 (stereo not shown)	4.11%
Cc1nn(CC(=O)Nc2nc3ccccc3s2)c(C)c1Cl	2.62%
O=C(CN1CCOCCOCCOCCOCC1)Nc1ccccc1	-8.37%
CS(=O)(=O)N(CCc1ccccc1)CC(=O)Nc1ccc2c(c1)OCCO2	5.17%
